In the supplement of paper PMC9446081:
The whole screen tested about 39,000 compounds, of which about 220 (0.56%) showed activity. The list shows a part of the results.

Test system: Escherichia coli K-12 BW25113
Assay: relative growth (OD600 normalised to plate interquartile mean) (fraction); higher = less growth inhibition, active = 0.2 or less
Details: 50 µM; LB; incubation time: overnight (16-24 h)
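Further: static incubation at 37 °C against the wild-type strain, values averaged over two biological replicates.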

Compound | relative growth
C[C@H](CO)N1C[C@H](C)[C@@H](CN(C)C(=O)CCC(F)(F)F)OCCCC[C@H](C)Oc2ccc(NS(=O)(=O)c3ccccc3)cc2C1=O | inactive: 0.967
COc1ccc(S(=O)(=O)Nc2ccc3c(c2)CC(=O)N([C@@H](C)CO)C[C@H](C)[C@@H](CN(C)Cc2ccc(Oc4ccccc4)cc2)O3)cc1 | inactive: 1.03
O=C(NO)c1ccc(-c2cn(CC(=O)N3CCOCC3)nn2)s1 | inactive: 1.02
O=C(C[C@@H]1C[C@@H]2c3cc(NC(=O)Cc4ccncc4)ccc3O[C@@H]2[C@H](CO)O1)NCCc1ccccc1 | inactive: 0.986
C[C@H]1CN([C@@H](C)CO)C(=O)Cc2cc(NS(C)(=O)=O)ccc2O[C@@H]1CN(C)S(=O)(=O)c1ccccc1 | inactive: 1.04
Cc1ccccc1NC(=O)C[C@H]1CC[C@H]2[C@@H](COc3ccc(NC(=O)c4ccc(Cl)cc4)cc3C(=O)N2C)O1 | inactive: 1.02
C[C@@H]1CN([C@H](C)CO)C(=O)c2cc(NC(=O)Nc3ccc(F)cc3)ccc2O[C@@H](C)CCCCO[C@H]1CN(C)Cc1ccc2c(c1)OCO2 | inactive: 1.03
CO[C@H](CN(C)C(=O)c1ccc2c(c1)OCO2)[C@H](C)CN([C@@H](C)CO)S(=O)(=O)c1ccc(Cl)cc1 | inactive: 1.01
C[C@@H]1CN([C@H](C)CO)C(=O)c2cc(NC(=O)Nc3ccc4c(c3)OCO4)ccc2O[C@@H]1CN(C)S(=O)(=O)c1cn(C)cn1 | inactive: 0.999
C[C@H](CO)N1C[C@H](C)[C@H](CN(C)Cc2ccc(C(=O)O)cc2)OCCCC[C@H](C)Oc2ccc(NS(=O)(=O)c3ccccc3)cc2C1=O | inactive: 0.982
CC(C)NC(=O)N(C)C[C@H]1Oc2c(NC(=O)C3CCCCC3)cccc2C(=O)N([C@@H](C)CO)C[C@H]1C | inactive: 0.983
O=C(C[C@@H]1CC[C@@H](NC(=O)Cc2ccccn2)[C@H](CO)O1)NCCCN1CCOCC1 | inactive: 0.998
COc1ccccc1-c1ccc2c(c1)O[C@@H](CN(C)S(=O)(=O)c1ccccc1)[C@H](C)CN([C@@H](C)CO)S2(=O)=O | inactive: 1.02
NC(N)=Nc1nc(CSCCC(N)=NS(N)(=O)=O)cs1 | inactive: 1
Cc1ccc(S[C@]2(C(=O)NCC(C)C)CC(=O)N(Cc3ccccc3C(F)(F)F)[C@@H]2c2ccc(CO)cc2I)cc1 | inactive: 1.01
C[C@H](CO)N1C[C@H](C)[C@@H](CN(C)Cc2ccccc2)OCCCC[C@H](C)Oc2ccc(NC(=O)c3ccccc3)cc2C1=O | inactive: 0.991
O=C(CN1CCOCC1)N[C@H]1CC[C@@H](CCNS(=O)(=O)c2ccccc2F)O[C@H]1CO | inactive: 0.931
